Data taken from article PMC7819943, “Rice protein-binding microarrays: a tool to detect cis-acting elements near promoter regions in rice”.
This is one part of the list.

Molecular target: T1, OsWOX13 (Oryza sativa, UniProt Q5QMM3 1-267)
T1 sequence: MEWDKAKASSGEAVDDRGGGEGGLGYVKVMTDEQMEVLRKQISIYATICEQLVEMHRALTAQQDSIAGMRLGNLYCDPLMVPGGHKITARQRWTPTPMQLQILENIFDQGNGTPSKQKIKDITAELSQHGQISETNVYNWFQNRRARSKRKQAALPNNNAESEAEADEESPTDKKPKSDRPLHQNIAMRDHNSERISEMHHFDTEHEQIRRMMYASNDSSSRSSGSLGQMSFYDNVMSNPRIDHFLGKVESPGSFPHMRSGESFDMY
Assay: protein-binding microarray (RPBM); PBS, 2% BSA, 51.3 ng/ul salmon testes DNA, 50 uM zinc acetate, 200 nM TF, 25 C, 1 h; high values mean tight binding
Conditions: protein: recombinant; tags: N-terminal polyhistidine and DsRed monomer fusion (pET32a); label: CyDye5-dUTP incorporated in the synthesized complementary strand; 3' TTTTT single-stranded linker to array surface; dsDNA, one strand shown
Procedure, shortened: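 In PBS with 2% BSA, salmon testes DNA and 50 µM zinc acetate, 200 nM protein was incubated on a custom Agilent array at 25 °C for 1 h and then washed off. The array had been made double-stranded by primer extension with Cy5-dUTP and blocked with 2% BSA. The proteins were transcription factors fused N-terminally to polyhistidine and DsRed, expressed in E. coli BL21-CodonPlus and purified on Ni–NTA. The binding signal is per-feature fluorescence intensity (arbitrary units) from an Axon 4000B scanner.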

Sequence | binding signal
CCGCTAATTAATCCGCTGTGCGTTGGACTTGAGTTTAGCGCGGAGTCACCTAGTGCAG | 25100 fluorescence intensity (a.u.)
TCTAATTTAGAATTATTGGTTTAAATTGAACTCCTCTGTCCGGAGTCACCTAGTGCAG | 46200 fluorescence intensity (a.u.)
TCTAATAATTTAGAGAGGGTTTAGATTAGGGGTGTAAAGTCGGAGTCACCTAGTGCAG | 6140 fluorescence intensity (a.u.)
CCTCTCTGTTCTTAATTAGCTAGTTACCTCCAAATCAATCCGGAGTCACCTAGTGCAG | 8440 fluorescence intensity (a.u.)
CTCAAATTACCAAAACGCCCCTCCTCCCTCCACTACTACCCGGAGTCACCTAGTGCAG | 10800 fluorescence intensity (a.u.)
TTCAAAACGTTAATTAATATGAAACCGGAGGGAGTAGGTACGGAGTCACCTAGTGCAG | 9620 fluorescence intensity (a.u.)
CAATCAATCAGGCAGTGTGTTTAGGCAAAGTAATCACTCCCGGAGTCACCTAGTGCAG | 16100 fluorescence intensity (a.u.)
ATTTAATTGATCTACGACTATAAAATTGAGTTAAACATATCGGAGTCACCTAGTGCAG | 41900 fluorescence intensity (a.u.)
ATAACTAATATAATCGAACCTGCCTCACTTAATATGTGGCCGGAGTCACCTAGTGCAG | 4830 fluorescence intensity (a.u.)
GGAGATTGAAGCCGTCGTCACCGGCCGGCGCGGCGCTTGCCGGAGTCACCTAGTGCAG | 9270 fluorescence intensity (a.u.)
TTTGATGATTTAACACTCCTTAAGGTCCCGTCGTTTGGCTCGGAGTCACCTAGTGCAG | 31500 fluorescence intensity (a.u.)
GTTTCAGATTGGAGATCTCTGTCTGTCTATCTGTTAATATCGGAGTCACCTAGTGCAG | 4320 fluorescence intensity (a.u.)
CACTTGACAGATAAATGCATGCACATTGAGTGCCAGCTCGCGGAGTCACCTAGTGCAG | 33400 fluorescence intensity (a.u.)
TTTCTTGATTAGGGTTTGAATTCATATTACTAACTTTCCTCGGAGTCACCTAGTGCAG | 38300 fluorescence intensity (a.u.)
GTAAAATTTTCTGTCTCCAACTCGAGATGGGCATTCAGCCCGGAGTCACCTAGTGCAG | 5360 fluorescence intensity (a.u.)
GTTGATTGTCCTGCTTCTTTTCTGTATTGAGATTCTTGTACGGAGTCACCTAGTGCAG | 33600 fluorescence intensity (a.u.)
TAAAATTAGAAGTTTAAAGAGATTGAAACGATGTGAGAAACGGAGTCACCTAGTGCAG | 6510 fluorescence intensity (a.u.)
TCTTCTTCTTGTTGTTCTTGTTCTTTCTTCTTCCCCTTTTCGGAGTCACCTAGTGCAG | 4300 fluorescence intensity (a.u.)
AATAATTTAAATAAAATTAGATGTTATCGCTATCCCTATTCGGAGTCACCTAGTGCAG | 11800 fluorescence intensity (a.u.)
TGGAATTTCCCCTGTGATTACATACGTGTGCTCGTAATGTCGGAGTCACCTAGTGCAG | 7830 fluorescence intensity (a.u.)
AGTCGAGTCAACTTAATTAACTTAACTTCAACCGTCGCTACGGAGTCACCTAGTGCAG | 5940 fluorescence intensity (a.u.)

Sequence | binding signal
TATTCATAAATTTGTAACCGACTTAACAACGTCCATATACCGGAGTCACCTAGTGCAG | 4790 fluorescence intensity (a.u.)
ATGATGTGACAGTAATATGAATATGGACACATGTATGTCCCGGAGTCACCTAGTGCAG | 11800 fluorescence intensity (a.u.)
CGAGACAAATCTTTTAAATCTAATTGTTCCATGATTTGACCGGAGTCACCTAGTGCAG | 11000 fluorescence intensity (a.u.)
GGTAAAACAGTAATAAATTGGCACCGAACCGCGGGGTAAACGGAGTCACCTAGTGCAG | 19700 fluorescence intensity (a.u.)
TATGATTTGATTACACTATTATATTTGTTACAATTAAATCCGGAGTCACCTAGTGCAG | 43700 fluorescence intensity (a.u.)
CTATTGAATGAAATTGACGTGTCGCCCGTTTGTTAAAATACGGAGTCACCTAGTGCAG | 13900 fluorescence intensity (a.u.)
AAAATTTGAAAATATAGATAATTATGCTAATATTTTAAGACGGAGTCACCTAGTGCAG | 4100 fluorescence intensity (a.u.)
CGATAAACTGAACAATCCCATCTTTGGTTGCTGGAGCAAACGGAGTCACCTAGTGCAG | 4330 fluorescence intensity (a.u.)
GTCTAAATCCTAGCAGCAAATTGATGATAGACCCACATAGCGGAGTCACCTAGTGCAG | 11100 fluorescence intensity (a.u.)
GTTCGATCATCTGATTGACTCCTCAAGAAAGTTCATTTGCCGGAGTCACCTAGTGCAG | 23600 fluorescence intensity (a.u.)
TGAAACTTTTGATTGGACTGTAGCTCCAGAAGAGTTGAAGCGGAGTCACCTAGTGCAG | 30700 fluorescence intensity (a.u.)
AAAATTTGATAAGGTTTATTTTGGATAATCTGAACAGCCCCGGAGTCACCTAGTGCAG | 4300 fluorescence intensity (a.u.)
CAATTTAATGGCCAATTTATACAATAGTTACCGATAAACACGGAGTCACCTAGTGCAG | 6060 fluorescence intensity (a.u.)
AGTCAATTACCAGTTATCACAACAATCCTCCTGGTAGAAACGGAGTCACCTAGTGCAG | 25700 fluorescence intensity (a.u.)
TAGACTAATTTTCGAAAGTTAAAACATTTGATGTCACGCACGGAGTCACCTAGTGCAG | 4680 fluorescence intensity (a.u.)
GTCTGATGGATAGCCGTCCGATCCGCGCGGCTCGATCGCACGGAGTCACCTAGTGCAG | 8760 fluorescence intensity (a.u.)
CCCTAACTTGCATAATTTAATTACCATTTCTCTACCAAGACGGAGTCACCTAGTGCAG | 14900 fluorescence intensity (a.u.)
TTGGTGATTGAATCTGAACATGCTGGCCTTTGGGATGACTCGGAGTCACCTAGTGCAG | 28400 fluorescence intensity (a.u.)
GATTTATGATTAATGGATTATAACTTTACACTAATATAGGCGGAGTCACCTAGTGCAG | 28600 fluorescence intensity (a.u.)
CTAGTGCAATCACTCAAGATCTGATCAGATCAAACCATTCCGGAGTCACCTAGTGCAG | 4680 fluorescence intensity (a.u.)
AATTGATTATAGATGATGTTCTAAATTTTGGAGCTGGTAGCGGAGTCACCTAGTGCAG | 44800 fluorescence intensity (a.u.)

Sequence | binding signal
ACGAATCTATTGAGCCTAATTAATTCATAATTAGTCTATGCGGAGTCACCTAGTGCAG | 14600 fluorescence intensity (a.u.)
AAGATTGATACACGGAATTCATCTGCTACAGGAAAGCATTCGGAGTCACCTAGTGCAG | 28500 fluorescence intensity (a.u.)
GAAATGACAGATGAATGTACAGTACCGCAAAGCTAGCCCTCGGAGTCACCTAGTGCAG | 9750 fluorescence intensity (a.u.)
TATGTGTGATTTAACTTGGATAAATTTTAGAGGCTAAATTCGGAGTCACCTAGTGCAG | 7520 fluorescence intensity (a.u.)
ATGATTTATGATCATACTTAGGTGCTTCGATAAATTATTGCGGAGTCACCTAGTGCAG | 17700 fluorescence intensity (a.u.)
TTCCTGCGATTCAATCAAACGGTCATTCCTGTGTTTTGCACGGAGTCACCTAGTGCAG | 6180 fluorescence intensity (a.u.)
TACTAATGATAGATTAATTAGGCTTAATAAATTCGTCGCACGGAGTCACCTAGTGCAG | 37100 fluorescence intensity (a.u.)
TTAATTAGGGGAAACTGGACGAAAACCACCACTACAACCACGGAGTCACCTAGTGCAG | 7800 fluorescence intensity (a.u.)
ATGTATGGAATCAGAAGATTGGCATTTTGACGTACTGCTACGGAGTCACCTAGTGCAG | 4440 fluorescence intensity (a.u.)
GAATAATTCACTTGATGGGCATGTCATCGCTTATTAACACCGGAGTCACCTAGTGCAG | 9640 fluorescence intensity (a.u.)
TGTTTGATTTGTTTTCTTTCAATTTTGGCATTCAAATTTACGGAGTCACCTAGTGCAG | 13700 fluorescence intensity (a.u.)
TTGAATAATTGTGTGTTCCTTATCTTGGTCTGGTCACTTTCGGAGTCACCTAGTGCAG | 7460 fluorescence intensity (a.u.)
CCAATGTTATTGATTTGGAACGCCCAGATGGTATAATTGTCGGAGTCACCTAGTGCAG | 14000 fluorescence intensity (a.u.)
GACAATAATCGAGATTGAATTTGTGAAATAACAGGATAATCGGAGTCACCTAGTGCAG | 7060 fluorescence intensity (a.u.)
TTGTAGGATTGGCAATTCCTTTGGATTTGGCACTGTTTATCGGAGTCACCTAGTGCAG | 12000 fluorescence intensity (a.u.)
TTTGACTGTAAATCGGAATAAGATCTGGAATAATGATCTACGGAGTCACCTAGTGCAG | 10600 fluorescence intensity (a.u.)
CGCTAAAATTTAGTTTCTTTTCATATTCTCTAGCTGATTTCGGAGTCACCTAGTGCAG | 4310 fluorescence intensity (a.u.)
AAATTCAAATTTTATATAGTTCAATCAAACTTGGATGAAGCGGAGTCACCTAGTGCAG | 5260 fluorescence intensity (a.u.)
AGATCATGATTTGCATGATATGCATCTGGATTTAACAAGTCGGAGTCACCTAGTGCAG | 16100 fluorescence intensity (a.u.)
GGAATTCCCTCCCAATTACCTGCCCCTACCCAGGTATTGACGGAGTCACCTAGTGCAG | 3340 fluorescence intensity (a.u.)
TTGTTACTCGTGATTTGGAAGAAATTATCTGATTCTGTTTCGGAGTCACCTAGTGCAG | 4560 fluorescence intensity (a.u.)

Sequence | binding signal
GTAAATTACACATAACTGTTAACTGTTTTAAGAGTAAGTTCGGAGTCACCTAGTGCAG | 41900 fluorescence intensity (a.u.)
ATTTTCCGTCCCCTTACCACGCTATTTCTCACGATTAATACGGAGTCACCTAGTGCAG | 3300 fluorescence intensity (a.u.)
ATGGTTGTGATTTGTTTAGGTCGAGTAAAGGAGGAATTCCCGGAGTCACCTAGTGCAG | 9110 fluorescence intensity (a.u.)
GACGTTTAGATAGATTAATATGAAGACATTTTGCTTTTGGCGGAGTCACCTAGTGCAG | 13000 fluorescence intensity (a.u.)
AGGACTGCTTATCAATTATCAAGTCGAAGTTTGGCTATTGCGGAGTCACCTAGTGCAG | 5050 fluorescence intensity (a.u.)
AAACACCTAAAAGCAATTAATTGTACACTTATGATTTCCTCGGAGTCACCTAGTGCAG | 8280 fluorescence intensity (a.u.)
CAATGATTGGGGTCCGACATTAGGCTCCACCTTAGGGTTGCGGAGTCACCTAGTGCAG | 42900 fluorescence intensity (a.u.)
ACTTAATTATTTGTAGACAAAGCAATGCATGACATACCTCCGGAGTCACCTAGTGCAG | 29700 fluorescence intensity (a.u.)
AGTTGCACTGTAATTATAGTGTAATTACGTGTAGTAACACCGGAGTCACCTAGTGCAG | 9670 fluorescence intensity (a.u.)
GCGCATTCCTTGCTTAATTAATGGGCTGTCAGTGGGCGAACGGAGTCACCTAGTGCAG | 3740 fluorescence intensity (a.u.)
AGTGAATCTTAAATTGAAGCAAAACGAATCGGATTTGGTTCGGAGTCACCTAGTGCAG | 6420 fluorescence intensity (a.u.)
AATTTATATTATAATTGACATTAGTGGAATACGAGGGGATCGGAGTCACCTAGTGCAG | 23000 fluorescence intensity (a.u.)
TTTATATCATTCTAATTGATTCTGATAGTGCAGCGCAAACCGGAGTCACCTAGTGCAG | 18800 fluorescence intensity (a.u.)
AAGACCATAACACAATTTAAATTGTTCGTTTATAACAATACGGAGTCACCTAGTGCAG | 9700 fluorescence intensity (a.u.)
GTCTAACTGCCAACATCTTCATATGGCCCATCAATGCTTTCGGAGTCACCTAGTGCAG | 3600 fluorescence intensity (a.u.)
GACATAAACGACCCACTGACATGTGGGCCCCACGGAGCCGCGGAGTCACCTAGTGCAG | 7270 fluorescence intensity (a.u.)
GTGAGACAACAAATTAAGCAAAGCAGCGTCGATCGTCAGTCGGAGTCACCTAGTGCAG | 3510 fluorescence intensity (a.u.)
GGCTAATAACATCATGTGACTAGTTTGTGGACTGTTTCACCGGAGTCACCTAGTGCAG | 3590 fluorescence intensity (a.u.)
CCTTCCTGATTTCAATCAGCCGTTTACAGTAGAAACAGATCGGAGTCACCTAGTGCAG | 41400 fluorescence intensity (a.u.)
TAAACATAATATAGATTGTGTGTCTAATTTTAACATTTGGCGGAGTCACCTAGTGCAG | 10300 fluorescence intensity (a.u.)
GTCTTTGACAACTATTGATGCATAACCCATGTTAACACCCCGGAGTCACCTAGTGCAG | 4000 fluorescence intensity (a.u.)
